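Tested at 5 concentrations; 48 h exposure; 96-well plates; endpoints linearly interpolated, else capped at highest concentration. Abbreviation: GI50, concentration required for 50% inhibition of growth. At the TGI there is no net growth.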
Test system: NCI-H322M lung
Assay: NCI tumour cell line growth inhibition, 48 h

| SMILES | GI50 [µM] | TGI [µM] |
| --- | --- | --- |
| CN(C)CCCOc1c2ccccc2nc2c1oc1ccc(Cl)cc12 | 2.89 | 12 |
| CCO/C=N/C1=C(C#N)C(c2ccc(F)cc2)c2sc3c(C)cccc3c2O1 (stereo not drawn) | 0.904 | 21.3 |
| Cc1cc2c(-c3ccc(NC(=O)[C@H](N)CC(C)(C)C)cc3C)ccnc2[nH]1 | 14.3 | 27.6 |
| Cc1ccc(C2CC(c3ccc(Nc4nc(NCCO)nc(Nc5ccc(Cl)cc5)n4)cc3)=Nc3c(N)nc(N)nc3N2)cc1 (stereo not drawn) | 1.59 | 2.94 |

— PubChem BioAssay (NCI)
